Assay results published in PubChem BioAssay AID651820 (National Center for Advancing Translational Sciences (NCATS), 2012).
The whole screen tested about 340,000 compounds, of which about 12,000 (3.5%) were called active. The shares of active, inactive and inconclusive entries below differ from those in the screen. Calls follow the shape of the dose curve; as a rule, active = well fitted inhibition curve with a large enough effect; inconclusive = small, poorly fitted or top-dose-only effect, or another doubt; inactive = no such curve, though single readings can be large or run the other way. Potencies of inconclusive entries are left out as doubtful fits.

Assay: qHTS Assay for Inhibitors of Hepatitis C Virus (HCV)
Conditions: Huh7.5.1 HCVcc-Cre (HCVcc is cell-culture hepatitis C virus) infection, luciferase reporter, 44 h; activity change, negative = inhibition: at 41.8 µM (top of the series) unless noted
In short: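 Infectious HCVcc-Cre (~0.5 moi) was added to cells just after compound, with cells seeded 4 h earlier at 1,000 per well. Luciferase activity after 44 h culture reported infection; substrate was incubated 15 min at room temperature before reading.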
% is scaled to controls: 0 for no effect and ±100 for the full control effect; potency is read from the fitted curve at half-maximal effect; tags tell the direction and shape of the fitted curve.

Q: For Nc1cc2nc[nH]c2cc1N, which Potency is on record?
A: inactive

Q: Which Potency does the source give for CC(C)c1ccc(-c2noc(C3CCCN(C(=O)c4ccc(F)cc4F)C3)n2)cc1 (stereo unspecified) here?
A: active: 11.2 µM

Q: With Cn1cnc([N+](=O)[O-])c1Sc1ncnc2nc[nH]c12 as the molecule, how does the Potency read?
A: inactive

Q: For CC(NC(=O)/C=C/c1ccco1)c1nc2ccccc2n1Cc1c(Cl)cccc1Cl (stereo unspecified), which Potency is on record?
A: inactive

Q: With Cc1ccc(C(=O)Nc2ccc(S(=O)(=O)NC3=NCCCCC3)cc2)cc1S(=O)(=O)N1CCOCC1 as the molecule, how does the Potency read?
A: inactive

Q: With Cc1ccc(NC(=S)N(CCN(C)C)Cc2cc3cc(C)cc(C)c3[nH]c2=O)cc1 as the molecule, how does the Potency read?
A: inconclusive [inhibitor, single point]

Q: For CCN(c1ccccc1)S(=O)(=O)c1ccc(Cl)c(NC(=O)COC(=O)c2ccc(O)cc2)c1, which Potency is on record?
A: inconclusive [inhibitor, partial curve]

Q: For Cc1ccc(OCc2nc(-c3ccccn3)n[nH]2)cc1, which Potency is on record?
A: inconclusive [inhibitor, single point]

Q: Which Potency does the source give for CN(C)c1cccc(C(=O)OCCNC(=O)c2cccc(S(=O)(=O)N3CCOCC3)c2)c1 here?
A: active: 10 µM

Q: With c1ccc(-c2cc3c(N4CCCCC4)ncnc3s2)cc1 as the molecule, how does the Potency read?
A: inconclusive [inhibitor, full curve, poor fit]

Q: Which Potency does the source give for Cc1ccccc1OCC(=O)Nc1ccc(C)c(S(=O)(=O)N2CCCCCC2)c1 here?
A: inconclusive [inhibitor, partial curve]

Q: Which Potency does the source give for O=C(N/N=C1\CCCc2ccccc21)c1cccc(Br)c1 here?
A: inconclusive [inhibitor, single point]

Q: Which Potency does the source give for CN(CC(=O)Nc1cccc(S(=O)(=O)N2CCCC2)c1)CC(=O)Nc1ccc(F)c(F)c1F here?
A: inconclusive [inhibitor, single point]

Q: For N#Cc1c(NC(=O)CSc2nc(-c3ccccc3)cc(C(F)(F)F)n2)sc2c1CCC2, which Potency is on record?
A: inactive

Q: For Cc1cc(C)nc(Sc2ncnc3c2oc2ccccc23)n1, which Potency is on record?
A: inconclusive [inhibitor, single point]

Q: With Cc1nnsc1S(=O)(=O)Cc1ccccc1C(F)(F)F as the molecule, how does the Potency read?
A: inactive

Q: With CCCn1c(CN(C)Cc2ccccc2)nc2c1c(=O)n(C)c(=O)n2C as the molecule, how does the Potency read?
A: active: 7.94 µM

Q: With NS(=O)(=O)c1ccccc1 as the molecule, how does the Potency read?
A: inactive

Q: With Cc1cc(C(C)(C)C)oc1C(=O)N(CC(=O)NC1CCCC1)c1ccc(F)cc1 as the molecule, how does the Potency read?
A: inconclusive [inhibitor, partial curve]

Q: For CC1CCN(C(=O)CCCOc2cc(=O)n(C)c3ccccc23)CC1, which Potency is on record?
A: inconclusive [inhibitor, single point]

Q: Which Potency does the source give for C=CCn1c(COC)nnc1SCC(=O)c1ccc(F)cc1 here?
A: inconclusive [inhibitor, partial curve]

Q: Which Potency does the source give for COc1ccc(-n2nc(C(=O)NCC(=O)Nc3cc(OC)ccc3OC)c3ccccc3c2=O)cc1 here?
A: inconclusive [inhibitor, single point]

Q: For Cc1ccc(-c2ccc(/C=N/NC(N)=S)o2)cc1, which Potency is on record?
A: active: 11.2 µM

Q: Which Potency does the source give for NC(=O)C1CCN(c2nc(C3CC3)nc3c2nnn3Cc2ccccc2)CC1 here?
A: inconclusive [inhibitor, single point]

Q: With CC(=O)c1cc(C(=O)N2CCc3c([nH]c4ccccc34)C2CC(C)C)[nH]n1 (stereo unspecified) as the molecule, how does the Potency read?
A: inactive

Q: Which Potency does the source give for COc1cc(/C(C)=N/NC(=O)Cc2c(C)[nH][nH]c2=O)ccc1O here?
A: inactive

Q: For CN(C)c1ccc(N2C(=NC(=O)CCC3CCCC3)SC3CS(=O)(=O)CC32)cc1 (stereo unspecified), which Potency is on record?
A: inactive

Q: With COc1cc(/C=N/NC(=O)c2cccc([N+](=O)[O-])c2)ccc1OCc1ccc(C)cc1 as the molecule, how does the Potency read?
A: inconclusive [inhibitor, partial curve, poor fit]

Q: For Cc1cc(-c2nnc(SCC(=O)Nc3ccccn3)o2)no1, which Potency is on record?
A: inactive

Q: For N#C/C(=C\c1ccc(-c2ccc(F)cc2)o1)C(=O)Nc1nc(-c2cccs2)cs1, which Potency is on record?
A: inconclusive [inhibitor, single point]

Q: Which Potency does the source give for COCCOC(=O)c1c(C)oc2ccc(O)c(CN3CCC(C)CC3)c12 (tested in a mixture with another compound) here?
A: inactive

Q: For CC(c1ccc(F)cc1)n1cc(S(=O)(=O)N2CCCC2)ccc1=O (stereo unspecified), which Potency is on record?
A: inactive

Q: Which Potency does the source give for Cn1c(=O)c2c(nc(SCCN3CCOCC3)n2Cc2ccc(Cl)cc2)n(C)c1=O here?
A: inconclusive [inhibitor, partial curve]

Q: Which Potency does the source give for c1cc2cc(-c3c(-c4ccc5c(c4)OCO5)noc3-c3ccsc3)ccc2[nH]1 here?
A: inconclusive [inhibitor, partial curve]

Q: For CCNc1nc(N)nc(-c2cc(Cl)ccc2O)n1, which Potency is on record?
A: inconclusive [inhibitor, single point]

Q: With COc1ccc(C(=O)NCC(c2cccnc2)N2CCN(c3ccc(F)cc3)CC2)cc1OC (stereo unspecified) as the molecule, how does the Potency read?
A: inconclusive [inhibitor, single point]

Q: For CCn1c(=O)cc(OCC(=O)N2CCCC2)c2ccccc21, which Potency is on record?
A: inactive

Q: With CCc1ccc(NC(=O)N2CCN(c3ccccc3)CC2)cc1 as the molecule, how does the Potency read?
A: inconclusive [inhibitor, partial curve, poor fit]

Q: With CC(C)(C)c1nc(CN2CCCCC2)cc(CN2CCCCC2)c1O as the molecule, how does the Potency read?
A: inactive

Q: Which Potency does the source give for C/C(=N\NC(=O)CSCc1ccc(Cl)cc1)c1ccc2c(c1)OCCO2 here?
A: inconclusive [inhibitor, single point]

Q: For O=C(/C=C/c1cc(Br)ccc1O)c1ccco1, which Potency is on record?
A: inconclusive [inhibitor, single point]

Q: For CSc1ccc(C(=O)C2CCCN(Cc3cccn3-c3cccnc3)C2)cc1 (stereo unspecified), which Potency is on record?
A: active: 14.1 µM

Q: With O=C(CCc1ccc(S(=O)(=O)NCCc2ccccc2)cc1)Nc1ccc2c(c1)OCCO2 as the molecule, how does the Potency read?
A: inconclusive [inhibitor, partial curve]

Q: For CCn1c2ccccc2c2nc3ccccc3nc21, which Potency is on record?
A: inconclusive [inhibitor, single point]

Q: Which Potency does the source give for COC(=O)c1cc(COc2ccc3oc(C)c(C(=O)OC(C)C)c3c2)c(C)o1 here?
A: inconclusive [inhibitor, single point]

Q: With COc1ccc(NC(=O)CN(C)C(=O)c2cn(-c3ccccc3)nc2-c2ccc(F)cc2)cc1 as the molecule, how does the Potency read?
A: active: 11.2 µM

Q: Which Potency does the source give for CCCCC1=CC2=CC(=O)C(C)(OC(=O)CC)C(=O)C2=CN1CCc1c[nH]c2ccccc12 (stereo unspecified) here?
A: inconclusive [inhibitor, single point]

Q: For Cc1ccc(C(=O)N2N=C(c3cccc(NS(C)(=O)=O)c3)CC2c2cccs2)cc1 (stereo unspecified), which Potency is on record?
A: inconclusive [inhibitor, single point]

Q: Which Potency does the source give for Cc1ccc(OCC(=O)N2CCN(Cc3ccc4c(c3)OCO4)CC2)cc1C here?
A: inactive

Q: For CCCn1c(C2CCCN2c2nc(-c3ccc(OC)cc3)cs2)nc2ccccc21 (stereo unspecified), which Potency is on record?
A: inconclusive [inhibitor, full curve]

Q: For C/C(=N/NC(=O)c1ccc(Cl)s1)c1cccnc1, which Potency is on record?
A: inactive

Q: Which Potency does the source give for Cc1c(Cl)cccc1NC(=O)N1CCCN(c2nc(-c3ccccc3)ns2)CC1 here?
A: inconclusive [inhibitor, single point]

Q: For COc1ccc(N(C(=O)/C=C/C(=O)Nc2cc(C)on2)C(C(=O)NC2CCCC2)c2ccccc2C)cc1 (stereo unspecified), which Potency is on record?
A: inconclusive [inhibitor, single point]

Q: With CCOC(=O)c1c(-c2ccccc2)nnn1-c1nc(OCC)nc(N2CCCCC2)n1 as the molecule, how does the Potency read?
A: active: 6.31 µM

Q: Which Potency does the source give for O=C(Nc1ccccc1F)c1ccc(COc2ccc(Cl)cc2Cl)o1 here?
A: inconclusive [inhibitor, single point]

Q: For COc1ccc(Cl)c2sc(N(CCN(C)C)C(=O)c3ccc4c(c3)OCCO4)nc12, which Potency is on record?
A: inconclusive [inhibitor, partial curve]

Q: For CCCCCn1c(=O)[nH]c2cc(C(=O)NCCCN(CC)CC)ccc2c1=O, which Potency is on record?
A: inconclusive [inhibitor, partial curve]

Q: For Nc1c2c(nc3sc4c(c13)CCCCC4)CCCCC2, which Potency is on record?
A: inconclusive [inhibitor, single point]

Q: With CCOC(=O)C1CCN(C(C(=O)NC2CCCCC2)c2ccc(OC)cc2)CC1 (stereo unspecified) as the molecule, how does the Potency read?
A: inconclusive [inhibitor, single point]

Q: Which Potency does the source give for COc1ccc(Br)cc1S(=O)(=O)Nc1cccc(C)n1 here?
A: inconclusive [inhibitor, single point]

Q: For COc1cc(-c2cc(C(=O)Nc3ccc(N4CCOCC4)cc3)c3ccccc3n2)cc(OC)c1OC, which Potency is on record?
A: inconclusive [inhibitor, full curve]

Q: For CN=C(Nc1cccc(S(=O)(=O)N2CCOCC2)c1)c1ccccc1, which Potency is on record?
A: inactive

Q: Which Potency does the source give for O=C(COC(=O)c1ccc([N+](=O)[O-])s1)NC(c1ccccc1)c1ccccc1 here?
A: inactive

Q: Which Potency does the source give for COc1cccc(NC(=O)C2CCCN(S(=O)(=O)c3cccc4nsnc34)C2)c1 (stereo unspecified) here?
A: inconclusive [inhibitor, single point]

Q: With COc1c(C(=O)Nc2ccc(CN3CCOCC3)cc2)cc2ccccc2c1Br as the molecule, how does the Potency read?
A: active: 12.6 µM

Q: Which Potency does the source give for CN(C)S(=O)(=O)c1ccc(N=Cc2c(C(F)(F)F)[nH]n(C)c2=O)cc1 here?
A: inactive

Q: Which Potency does the source give for Cc1c(Cl)cccc1NC(=S)N(CCN(C)C)C(C)c1ccco1 (stereo unspecified) here?
A: inconclusive [inhibitor, partial curve]

Q: With CCN(CC)c1ncnc2c1[nH]c1ccccc12 as the molecule, how does the Potency read?
A: active: 11.2 µM

Q: For O=C(COC(=O)c1cccnc1Nc1cccc(C(F)(F)F)c1)NC1CCS(=O)(=O)C1 (stereo unspecified), which Potency is on record?
A: inconclusive [inhibitor, single point]

Q: For CC(OC(=O)c1cc(=O)c2cc(Cl)ccc2o1)C(=O)N1CCCC1 (stereo unspecified), which activity change, negative = inhibition is on record?
A: inconclusive: -135% [inhibitor]

Q: With CCOC(=O)CCc1c(C)nc2c(c(C)nn2-c2ccc(C)cc2)c1C as the molecule, how does the Potency read?
A: inactive
